Among all 310,000 compounds or so, about 14,000 (4.5%) showed an effect of 50% or more. Effects have a minus sign here. The list shows a part of the results.
Biological target: human ether-à-go-go-related gene (hERG) potassium channel (human, UniProt Q12809)
Experiment: primary screen, population patch clamp on CHO cells stably expressing hERG
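Also: peak tail current of the secondary pulse compared with the same well before compound.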

human ether-à-go-go-related gene (hERG) potassium channel, sequence (Q12809 whole entry, looked up): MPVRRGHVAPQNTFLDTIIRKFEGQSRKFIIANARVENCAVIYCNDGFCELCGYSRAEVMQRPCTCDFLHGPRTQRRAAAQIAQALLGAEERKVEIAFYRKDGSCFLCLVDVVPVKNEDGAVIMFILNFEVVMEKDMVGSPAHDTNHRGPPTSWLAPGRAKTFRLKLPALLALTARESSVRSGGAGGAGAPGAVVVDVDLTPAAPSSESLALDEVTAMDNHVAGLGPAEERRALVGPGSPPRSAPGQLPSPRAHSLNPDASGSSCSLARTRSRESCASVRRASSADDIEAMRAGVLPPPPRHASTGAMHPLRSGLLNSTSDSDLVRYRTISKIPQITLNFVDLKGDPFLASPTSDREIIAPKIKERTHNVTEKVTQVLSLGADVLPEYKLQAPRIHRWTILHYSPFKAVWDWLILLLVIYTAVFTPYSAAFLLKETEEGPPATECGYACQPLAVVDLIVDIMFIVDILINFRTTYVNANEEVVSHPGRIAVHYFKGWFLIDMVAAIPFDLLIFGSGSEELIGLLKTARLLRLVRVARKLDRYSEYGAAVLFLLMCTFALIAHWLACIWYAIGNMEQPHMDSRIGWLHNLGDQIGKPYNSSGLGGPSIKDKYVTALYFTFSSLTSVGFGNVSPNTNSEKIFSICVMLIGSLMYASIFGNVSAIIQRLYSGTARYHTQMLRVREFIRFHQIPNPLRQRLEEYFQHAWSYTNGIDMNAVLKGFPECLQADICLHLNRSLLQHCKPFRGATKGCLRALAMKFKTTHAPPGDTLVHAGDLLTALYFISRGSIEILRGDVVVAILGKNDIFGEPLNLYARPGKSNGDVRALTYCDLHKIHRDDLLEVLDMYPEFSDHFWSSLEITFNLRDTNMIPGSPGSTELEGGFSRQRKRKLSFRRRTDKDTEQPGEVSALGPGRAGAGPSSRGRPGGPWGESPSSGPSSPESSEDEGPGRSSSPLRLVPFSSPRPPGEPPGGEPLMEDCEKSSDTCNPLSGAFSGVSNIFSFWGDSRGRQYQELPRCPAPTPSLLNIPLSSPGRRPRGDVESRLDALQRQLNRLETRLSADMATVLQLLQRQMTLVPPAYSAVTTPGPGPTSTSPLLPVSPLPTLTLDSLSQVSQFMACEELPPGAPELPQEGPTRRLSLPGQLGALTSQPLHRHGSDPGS

| SMILES | hERG current change (%, negative = inhibition) at 10uM |
| --- | --- |
| CCC1(CC)C(=O)N=C2c3ccccc3C(=O)N21 | -1.48% |
| Cc1ccccc1N1CCN(S(=O)(=O)c2nnc(NC(=O)CC(C)C)s2)CC1 | 24.3% |
| CCCOc1ccc(N2C(=O)CC(SC(=NC)Nc3ccc(F)cc3)C2=O)cc1 (centres unmarked) | 16.6% |
| C/C(=N\Nc1ccccc1[N+](=O)[O-])c1ccccc1O | 21.6% |
| CCc1nnc(NC(=O)C2CC(=O)N(Cc3ccco3)C2)s1 (centres unmarked) | 8.68% |
| CCN(CC(=O)Nc1ccc(NC(C)=O)cc1)C(=O)c1cc2c(s1)CCCCC2 | -2.2% |
| CC1(C)CC(=O)C2=C(C1)OC(N)=C(C#N)C21CCN(Cc2ccccc2)CC1 | 1.93% |
| C=CCn1c(SC(C)C(=O)NCc2ccc3c(c2)OCO3)nnc1C1CCCCC1 (centres unmarked) | -11.8% |
| COC(=O)c1ccccc1-c1cn(C)c2ccccc2c1=O | 15.7% |
| CC(=O)SCC(C)C(=O)NCc1ccccc1 (centres unmarked) | 22.1% |
| CCn1c(/N=C/c2c[nH]c3ccccc23)nc2ccccc21 | 8.73% |
| COc1ccccc1-n1c(COc2ccccc2-c2ccccc2)nnc1SCC(=O)c1c(N)n(C)c(=O)n(C)c1=O | 10.7% |
| O=[N+]([O-])c1ccccc1S(=O)(=O)Oc1ccc(/C=N/n2cnnc2)cc1 | -40.6% |
| CC(=O)c1ccc(OCC(=O)OC(C)C(=O)NC2CCCCC2)cc1 (centres unmarked) | -2.93% |
| O=C(Nc1ccc(C(=O)O)cc1)/C(=C\c1ccccc1)NC(=O)c1ccccc1 | 11.7% |
| O=C(CSc1nncs1)Nc1nccs1 | 13.1% |
| CCN(CC)CCCNC(=S)N(CCO)Cc1cc2cc3c(cc2[nH]c1=O)OCCO3 | 12.7% |
| CC(C)N1C(=O)S/C(=C/c2ccc(Sc3nc4ccccc4[nH]3)o2)C1=O | -0.151% |
| CC(C)N1CCN(Cc2cc3c(cc2Cl)OCO3)CC1CCO (centres unmarked) | -2.34% |
| Cc1ccc(NC(=O)c2ccc(Cn3cc(Cl)cn3)o2)c(C)c1 | -13.5% |
| Cc1ccn2cc(C(=O)NCc3ccco3)nc2c1 | 14.8% |
| O=C1C=CC(=O)N1c1ccc(N2CCCCC2)cc1 | 5.29% |
| Cc1cc(Cl)ccc1C(=O)C1CCCN(C(=O)CCn2cncn2)C1 (centres unmarked) | -28.4% |

| SMILES | hERG current change (%, negative = inhibition) at 10uM |
| --- | --- |
| COc1ccc(CN(N=O)C2CC(=O)N(c3ccc(OC)cc3)C2=O)cc1 (centres unmarked) | -1.04% |
| N#CC[C@H](Cc1ccccc1)N1CCN(CCc2ccccc2)CCC1=O | 16.5% |
| CCC(C)(C)n1nnnc1C(c1ccc(OC)c(OC)c1)N1CCN(c2cccc(OC)c2)CC1 (centres unmarked) | -8.2% |
| CC(=O)NC1C(OCCOc2ccc(Cl)cc2C)OC(CO)C(O)C1O (centres unmarked) | 14.4% |
| COc1ccc(C/C(C)=N/NC(=O)C2COc3ccccc3O2)cc1 (centres unmarked) | 25.7% |
| CC(C)(C)NC(=O)c1cc(Cl)ccc1[N+](=O)[O-] | -10.5% |
| C=CCN1C(=O)/C(=C\c2ccc(Oc3nc(N4CCOCC4)nc(N4CCOCC4)n3)c(OC)c2)SC1=S | 15.9% |
| Cc1cccc(C(=O)Nc2ccc3c(c2)C(=O)N(CC(C)C)C3=O)c1 | 23.1% |
| O=C(NCc1ccco1)c1cc(-c2ccccc2)nn1CC1CC(c2cccnc2)=NO1 (centres unmarked) | -63.9% |
| Cc1cc(Cl)ccc1OCCCC(=O)NNC(=O)c1ccncc1 | -30.2% |
| COc1cc(-c2noc(CCC(=O)NC3CCCC3)n2)cc(OC)c1OC | -3.14% |
| CCOc1cc2[nH]c(=O)n(CCCC(=O)NCc3ccc(OC)cc3)c(=O)c2cc1OCC | 8.71% |
| COCCn1c(-c2ccc(Cl)cc2)nc2c(c(=O)c3ccccc3n2C)c1=O | -9.44% |
| Cc1ccc(C(=O)NCCNc2nc3cc(C)c(C)cc3cc2C)cc1 | -4.44% |
| CC1(C)CC2(CC(c3ccccc3)c3ccc(O)cc3O2)NC(=S)N1 (centres unmarked) | 16.7% |
| COc1ccc(N(CC(=O)NC2CCCCC2)C(=O)CNC(=O)c2ccco2)c(OC)c1 | -12% |
| COc1ccccc1N1CCN(C(=O)CSc2nnc(NC(=O)C3CC3)s2)CC1 | 3.69% |
| COc1ccc2[nH]c(=O)c(CN(c3ccc(C)c(C)c3)S(C)(=O)=O)cc2c1 | 12.9% |
| COCCn1c(C)cc(C(=O)CSc2ccc3ccccc3n2)c1C | -0.727% |
| CCCCC(=O)Nc1c(O)c2ccccc2[nH]c1=O | -0.31% |
| CCOC(=O)CC1(NC(=O)c2cc(COc3cccc(OC)c3)on2)CCCCC1 | -0.0539% |
| CC(=O)Nc1ccccc1C(=O)OCc1cccc(F)c1 | 2.12% |
| Cc1cc(C=O)c(O)cc1O | 9.9% |

| SMILES | hERG current change (%, negative = inhibition) at 10uM |
| --- | --- |
| Nc1nc(SCC(=O)NN(c2ccccc2)c2ccccc2)n[nH]1 | -1.91% |
| COc1ccccc1Oc1c(C)oc2c(CN(C)C)c(O)ccc2c1=O | -1.06% |
| CCN1CC=C2C(C#N)=C(N)C(C#N)(C#N)[C@H](c3cccc(OC)c3OC)[C@H]2C1 | -6.54% |
| CCOc1ccc(N2CC(C(=O)NC(C)C)CC2=O)cc1 (centres unmarked) | 3.39% |
| O=C(COc1ccc(Cl)cc1Cl)Nc1noc2ccccc12 | 15% |
| CCOc1ccc2nc(NC(=O)c3cccc(-c4cc5ccccc5oc4=O)c3)sc2c1 | 10% |
| COC(=O)COn1c(-n2nc(C)cc2C)nc2ccccc2c1=O | 12.6% |
| O=c1nc(-c2ccccc2Cl)c2cc(F)ccc2[nH]1 | 11.1% |
| CC(C)C(=O)NC(=S)Nc1ccccc1N1CCN(C(=O)c2ccc(Cl)cc2)CC1 | -3.55% |
| CN1C(C(=O)N2CCc3ccccc3C2)=CC(c2ccc(F)cc2)=NS1(=O)=O | -3.37% |
| Nn1c(SCC(=O)Nc2ccccc2F)nc2ccccc2c1=O | 2.62% |
| CCCc1cc(C(=O)Nc2sc(C)c(CC)c2C#N)no1 | 10.3% |
| CCCOc1ccc(OCCSc2nnc(N)s2)cc1 | 12.5% |
| COc1ccc(/C=N/NC(=O)c2ccc(N(C)S(=O)(=O)c3ccccc3)cc2)cc1 | 8.35% |
| COc1ccccc1CN1CCCC(CN(CCN(C)C)C(=O)C2CCCC2)C1 (centres unmarked) | 8.07% |
| Oc1c(Br)cc(Br)cc1CNc1ccccn1 | 5.43% |
| CC(C)N=C1NN=C(c2cccs2)CS1 | 43.4% |
| CCOC(=O)N1CCN(C(=O)c2ccc(N3CC4CC(C3)c3cccc(=O)n3C4)c(NC(=O)c3ccc(F)cc3)c2)CC1 (centres unmarked) | -5.09% |
| CS(=O)(=O)c1cnc2c(-c3ccc(F)cc3)cnn2c1N | 0.863% |
| CCc1nc(NC(=O)Cc2csc(C)n2)sc1C(=O)OC | 2.85% |
| COC(=O)c1sccc1NC(=O)c1ccc(Cl)s1 | -5.63% |
| O=C(c1ccccc1)N1CCN(C(=S)NCCc2ccccc2)CC1 | -65.7% |
| O=C(NC1CCCCC1)C(c1ccc(F)cc1)N(C(=O)c1csnn1)C1CCCC1 (centres unmarked) | -7.88% |

| SMILES | hERG current change (%, negative = inhibition) at 10uM |
| --- | --- |
| Cn1ccnc1SCC(=O)Nc1ccc2c(c1)OCCO2 | 11.4% |
| COC(=O)c1ccc(OCC(O)CN2C(=O)c3ccccc3C2=O)cc1 (centres unmarked) | 13.6% |
| COc1ccc(/C=C\C(=O)NCc2ccc3c(c2)cc(C)n3C)cc1OC | 6.06% |
| O=[N+]([O-])c1cccc(C2=NCCS2)c1 | -21.3% |
| Cc1nnc(NC(=O)c2ccc(S(=O)(=O)N3CCCCCC3)cc2)o1 | -18.5% |
| CC(C)C(=O)Nc1ccc(O)c(-c2csc(N)n2)c1 | 15.3% |
| CCCCOc1cccc(-c2nnc(N)s2)c1 | 1.12% |
| Cc1ccc(CCNC(=O)CC2Oc3ccc(C)cc3NC2=O)cc1 (centres unmarked) | 5.18% |
| O=c1c2ccc([N+](=O)[O-])cc2ncn1CCOc1ccc(Cl)cc1 | -37.5% |
| CCc1sc(C(=O)N2CCN(S(C)(=O)=O)CC2)cc1Br | -10.3% |
| COc1ccccc1CNC(=O)c1cc(-c2ccccc2)n(Cc2cc(C)no2)n1 | -37.2% |
| Cc1ccc(-n2ncc3c(SCc4cccc(C)c4)ncnc32)cc1 | 0.386% |
| O=C(Cn1cnc2ccccc2c1=O)OCC(=O)c1ccc2c(c1)OCCO2 | 12.7% |
| Br.CCCCn1c(=N)n(CC(=O)c2ccc([N+](=O)[O-])cc2)c2ccccc21 | -71.7% |
| Cc1cccc[n+]1C1C(c2ccc([N+](=O)[O-])cc2)C(C#N)=C(C(=C=[N-])C#N)NC1(O)C1CC1 (centres unmarked) | -1.81% |
| COc1cc(OC)cc(C(=O)N2CCN(S(C)(=O)=O)CC2)c1 | 4.56% |
| Cc1nc2sccc2c(=O)n1N | 20.5% |
| CCN(CC)C(=O)c1csc(Nc2cccc3ccccc23)n1 | -16.9% |
| O=C(O)CCC(=O)N1CCc2cc(S(=O)(=O)NCc3cccs3)ccc21 | 8.92% |
| CCn1c(SCC(=O)OC(C)C)nnc1-c1ccccc1 | 4.81% |

From article PMC4336329 (PLoS ONE, 2015)
